Reference: the supplement of paper PMC11417369
This is one part of the list.

These sequences were tested on PfHDP1 homeodomain (GST-tagged) (assay: gcPBM binding intensity (ln(normalized median fluorescence intensity)); higher = stronger DNA binding).
How it was run: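 Alexa488 anti-GST antibody, scanned at 488 nm, detected GST-tagged P. falciparum DNA-binding domains that had been expressed in E. coli and incubated for 1 h on an Agilent 4 × 180k array. The array carried primer-extended double-stranded 36-bp intergenic genomic probes and negative controls. Binding intensity is the highest Masliner-normalised natural-log median intensity across replicate spots of either orientation of each probe.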

| Sequence | gcPBM binding intensity (ln) |
| --- | --- |
| AATAATATATATTACACACGCATCGTTCATTTATTT [CACACA_site2391] | 7.15 |
| TTGCCCATTTAATTAACACACAAATGTTTATATTCT [CACACA_site6488] | 6.86 |
| TTTGAAATAAGCAAATGTACATTATTATTAAATATA [XGTACX_site6158] | 6.48 |
| TTCACATACAGAAACACACACATATATATAAATTAA [CACACA_site3705] | 6.68 |
| TGTATGATAACTATAGTGCATTTGGTAATTTTTCCA | 8.53 |
| TCCATAAAAATGGATACACACACATAATATATATAT [CACACA_site9207] | 8.28 |
| TATAATATAAGGATCACACACAAACACCCATATATA [CACACA_site4468] | 6.86 |
| TTAATAACAAAATAAACACACATATATAAATACCCA [CACACA_site4960] | 6.83 |
| CATACATACATACATACACACATACCTATATTTATA [CACACA_site6769] | 7.48 |
| ATATATACATATATTACACACTTCTTATTCTAAGAA [CACACA_site3022] | 6.48 |
| CTAGCAAATACATACACACACACACCGATACAGATA [CACACA_site5853] | 6.67 |
| AACGCGAACAATTTATAGATAACTTTTAATTATTAT [GTGCAC_negctrl_site179] | 5.97 |
| ATATATATATTTGTGTGTACATATTAATTTGTATGA [XGTACX_site4047] | 8.08 |
| ATGGTATATCCAAATAAACACACGTAAATACATAAA [CACACA_site1682] | 6.83 |
| ATACATTTTTGTAAAAGTACATATACATGCCCCCTT [XGTACX_site1367] | 7.68 |
| AATATATATATAGGATGTACACATAATTCAAATACA [XGTACX_site6368] | 6.92 |
| TATATATATATAAACTGTACTATTTTATGTTAAAAG [XGTACX_site3630] | 9.03 |
| ATTTAATACAAATACACACACAAATATATACATATA [CACACA_site3747] | 6.87 |
| AGATATTAAAACGTTACACACATTTATATATCTTCT [CACACA_site908] | 6.48 |
| GTAAGTTTGAATACACGTACAAATTTATTAAAGTCC [XGTACX_site6722] | 6.84 |
| TTCCAAAATTGCATTTGTACCCAAAAAATGTATACG [XGTACX_site7680] | 6.56 |
| ATATTATTAATTTATAGTACTCATTTTTTTTTTTTT [XGTACX_site3536] | 6.4 |
| GCTTTTTATTTTTACCGTACATTATATATGTATATA [XGTACX_site808] | 7.64 |

| Sequence | gcPBM binding intensity (ln) |
| --- | --- |
| ATCAGTCGGCAGGACAGTACACAGTAGCCAGGAAAT [XGTACX_site2003] | 6.32 |
| TTTTGGCTGATCAGATTTAACAAAAAAAAAAAAAAA [CACACA_negctrl_site671] | 6.06 |
| CAAATGTAGAAAATGTGTACATAAAAAAAAAAAAAA [XGTACX_site8276] | 6.64 |
| AGTCAATTTTGTGTGTCAACATTTATATAAAGAATG [TGCATGCA_negctrl_site400] | 6.47 |
| TGTGAAAATTATGGGGCATGCAATACTTTAAAAATA [TGCATGCA_site653] | 6.75 |
| CAAATATATATTTTCTGTACAAATACAATTAATACT [XGTACX_site2694] | 6.45 |
| CCTTCAATTTACATAACACACATTTAACCATAATAA [CACACA_site2394] | 6.68 |
| TTTAGCCAATTTTTAAAGTTTAAAAAAGAAAAAAGA [CACACA_negctrl_site118] | 6.27 |
| TATTAAAAATACATATGTACTCATAGCATAAAACAT [XGTACX_site8686] | 6.72 |
| TTATATTTTCAGAATAGTACACATATATACATATAT [XGTACX_site2519] | 6.46 |
| AAAAATTCTTGGCGCACACACTTTAAAAATTAAAAA [CACACA_site4498] | 7.15 |
| TTATAAAAGAAAAAAAAAAAAAAAAAAAAAAAAAAA [CACACA_negctrl_site1006] | 6.11 |
| GATCATTTAAAATAAGTAATATTTTTTTTACTTTTG [TGCATGCA_negctrl_site602] | 5.9 |
| ACTAATTACTATAAAACACACATATATATATATATA [CACACA_site2591] | 9.48 |
| TTAGTCGAATGATGTACACACATACAAAACATTTAT [CACACA_site6076] | 6.49 |
| AAAAAAAAAAAAAAAAAAAAAAAAAAAAGAAAAAAG [GTGCAC_negctrl_site583] | 7.19 |
| AGAAAATATTTTGGTTGTACAGGCGATTTATATGTT [XGTACX_site7253] | 6.58 |
| TATATATATATATATACACACATTTTTAATGATAAA [CACACA_site2695] | 9.36 |
| TATAAATACAATTCACAAGAGATCATGTATCAAACC [CACACA_negctrl_site1219] | 6.04 |
| TTTCTAGTTACAAGAGTGCATAATATATAAAAATAA [GTGCAC_site9874] | 8.74 |
| ATATAATAAATATGTTGTACTATAAAAAATAGCCAT [XGTACX_site4710] | 6.12 |
| CATATATGTTATATTTAACACACATATAAGGTACAT [CACACA_site8105] | 6.51 |
| ATCTCTGTAAAGATCACACATATATTTTTGTTATAT [CACACA_site5094] | 6.51 |

| Sequence | gcPBM binding intensity (ln) |
| --- | --- |
| TTTATAATTTATATCACACATATATCTGTAATAAAT [CACACA_site5048] | 6.44 |
| TATATATTATATATATGTACATATTGTTGTGTATAT [XGTACX_site767] | 7.15 |
| CAGCTCTTAAAAATTACACACATATACACATATATA [CACACA_site9073] | 6.62 |
| ATAAAAATAAAAAAAACACACATACCTTATTTTTGT [CACACA_site5452] | 6.63 |
| GTGCATAAATCATACACACACACATATATATATATA [CACACA_site2423] | 9.32 |
| AAATATAAATGGTAATACACATACACACACACATAC [XGTACX_negctrl_site459] | 7.38 |
| TATAAAAAATTATGTTGTACGTAATATAAAATTTGT [XGTACX_site7122] | 6.32 |
| AATCAAAATAAATTAACACACAATTTTAATATTGTT [CACACA_site10] | 6.13 |
| ATTTTCCATATATTTTGTACATATGTATATTTTCCC [XGTACX_site7795] | 7.23 |
| TATTTTTAACAGTGCACACATAACTTAATTATATGT [CACACA_site2194] | 9.55 |
| CCAGGAAAAATTTATTGTACATATATTTTTATGCTC [XGTACX_site7154] | 6.53 |
| TATATTAAAAAAAAATGTACACATATATATATATAT [XGTACX_site4524] | 9.21 |
| ATATTATTAATTTGTTGTACAGTTCTTTATTTATAG [XGTACX_site7932] | 6.72 |
| TATATGTTTGAATATACACACAACATATATATATAT [CACACA_site4066] | 9.03 |
| TATTTTTGGTTATGTGTGCACTATGAACAACAAAAT | 10.4 |
| TATAAATAAAGACACACACACACACCGTATAATTAC [CACACA_site7829] | 6.84 |
| TTCCCAACATGATATTGTACATTTAATTATAATTAA [XGTACX_site7029] | 7.08 |
| TAATAAAACATATATACACACATTAGATATACATAT [CACACA_site6897] | 6.53 |
| TATATCTCTTTATTCACACATACGTTTTAAAATAAT [CACACA_site5542] | 7.17 |
| ATTTGTGTTATTCGAAGTACGGATCATTTGAAATAA [XGTACX_site2510] | 6.51 |
| TTTATGAGGTTACTATGTACGCAAATTATGTAATAA [XGTACX_site325] | 6.49 |
| AAAAGAAGAAACAAAACACACACAGTCTTCTTTTCT [CACACA_site9015] | 6.78 |
| AGCAATTTGGGGTGTACACACACCTTATTTAAATTA [CACACA_site1157] | 6.67 |

| Sequence | gcPBM binding intensity (ln) |
| --- | --- |
| TCAAATTATTAAAATACACACATATTATATATATAT [CACACA_site2530] | 8.51 |
| GACACCTGCATGAAAGTGCAAAATAGAAAAGGAACA [GTGCAC_site9593] | 9.59 |
| TTACCTCTTTGAAATATACACACTAAACATATCAAC [CACACA_site2455] | 6.82 |
| AAGGAATAATAATAAATGTAAAGAAAAGCATACTGA [CACACA_negctrl_site36] | 6.56 |
| AACACGCACAGACACACACACAAAAATGATTAAAAA [CACACA_site7195] | 7.3 |
| AAATACCTTATATATACACACTATGTTTTTCTTTTT [CACACA_site4792] | 6.61 |
| AGATATTTTTCTTAAGTACACACTAATTAGAAACTA [CACACA_site7897] | 6.4 |
| TTTTTATTTTAAAAGAATAATTATCTAATATCTATA [CACACA_negctrl_site371] | 5.71 |
| TCGAACGTATCATGTGTACACACAAATTGTTTTTTT [CACACA_site8623] | 7.31 |
| GTATAAAAGTAACTAGTGCATTACATATGAATAAAA | 9.14 |
| CCTTGCCCCAGGAGTTCACACACATAATAGATTGTC [CACACA_site8138] | 6.63 |
| TTTTTTCATATAAATACATGCACACAAAAATATCAA [TGCATGCA_site602] | 8.53 |
| AATAACAAAATATTAACACACATAACATATTATAAA [CACACA_site2803] | 6.46 |
| TAATGTTTTTTTTGTTTACCAAAAATAATACATTAT [CACACA_negctrl_site203] | 5.92 |
| TATTTCTTTATTGGCACACATTTTTTCAATTATATA [CACACA_site4975] | 6.96 |
| GCAAATATGTTGATATGTACATATATATATATATAT [XGTACX_site445] | 9.28 |
| ATATACAAATATATATATATATATATATATATATAT [CACACA_negctrl_site886] | 9.35 |
| AAAAAATATACATATACACACATATGTATATATAAT [CACACA_site8676] | 6.34 |
| ATTATTTTAATAAAACGTACAAAATATAAATCAAAA [XGTACX_site3770] | 6.83 |
| AGGTAGAAAAAAGACACACACATTATGTATATATAT [CACACA_site377] | 7.04 |
